# From US20070066800A1, “Apo2l(trail) receptor binding peptides and uses thereof” (priority 2003, published 2007)
# Read-outs that look alike come from different tables or passages of the source. Not every detail of the peptide structures is certain; ends, links or a residue may be inferred. Bridge positions count the residues as written; N and C are the ends. Peptide text beside a SMILES is read from it.
# Molecular target: T1, Hu DR5 ECD (SEQ ID NO: 105) (Homo sapiens, UniProt O14763, A67V/E190F/V191A)
# T1 construct: Human DR5-ECD long form polypeptide
# T1 sequence (O14763 with tags, fused parts or gaps A67V/E190F/V191A): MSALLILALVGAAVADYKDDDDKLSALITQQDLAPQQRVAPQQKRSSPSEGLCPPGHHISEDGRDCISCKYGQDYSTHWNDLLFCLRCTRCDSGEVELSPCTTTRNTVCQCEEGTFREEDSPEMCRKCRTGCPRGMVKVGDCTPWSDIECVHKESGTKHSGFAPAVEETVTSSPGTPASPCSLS
# Experiment: Phage competition Ic50 ELISA (phagemid binding assay), competitor DR5 ECD
# Description: The Apo-2L receptor binding peptides disclosed herein were identified from the bacteriophage peptide library constructs shown in Tables I and II using the following phagemid binding assay.
# 1. Coat microtiter plate wells with 80 ul of 1 ug/ml Apo-2L receptor DR5 ECD (SEQ ID NO: 105) (in 50 mM sodium carbonate pH 9.6) at 4° C. overnight.
# 2. Remove coat and block with 200 ul PBS/0.1% BSA. Incubate 1 hour at room temperature.
# 3. Prepare competing receptor solutions (100 ul/sample).
# Dispense SOul binding buffer to row H through B in a new non-sticky 96-well plate.
# Dispense 75 ul competing receptor solution to row A.
# Make 3-fold serial dilutions by transferring 25 ul solution along columns except for row H (use fresh tip set for each transfer).
# 4. Prepare appropriate subsaturating phage dilution (predetermined from phage dilution series).
# Transfer 50 ul of phage diluent to each microtiter well of the non-sticky plate. Start at row H then G,F,E,D,C,B,A respectively.
# Incubate at R.T. for 2 hours.
# 5. Shake block off plate which has been coated with DR5 ECD (SEQ ID NO: 105) and rinse 10 times with PBS+0.05% tween 20.
# 6. Transfer 80 ul the mixture of competing receptor and phage from the non-sticky plate to DR5 ECD coated plate and incubate 20 minutes at room temperature.
# 7. Make a 1:5000 dilution of HRP conjugate anti-M13 monoclonal Ab (Amersham Pharmacia Biotech) into binding buffer.
# Rinse plate 10 times with PBS/tween20 (be thorough here to remove vast excess of non displaying phage).
# Add 80 ul of Ab diluent to row H through A.
# 8. Mix TMB peroxidase substrate and peroxidase solution B at equal volume.
# Rinse plate 10 times with PBS/tween20.
# Add 80 ul of substrate to row H through A.
# Incubate as required to develop and stop with 80 ul 2.5M H2SO4.
# A number of bacteriophage clones expressing peptides of interest were generated using the above methods and then purified using limiting dilution. In order to further characterize specific clones of interest (e.g. to determine Ic 50 values), phage clones were grown and then purified using a polyethylene glycol based method as described in Sidhu et al., Methods Enzymol. 328, 333-363 (2000). Alternative methods for generating and purifying bacteriophages are also known in the art. See, e.g. Current Protocols In Molecular Biology, Volume 1, Units 1, 5 and 6, Frederick M. Ausubel et al. eds., 1995.
# Phage clones identified using the above methods were grown and then purified using the following polyethylene glycol based method. Briefly, a bacterial culture infected with a phage clone of interest is grown under conditions favorable to phage growth and then centrifuged for 10 min at 2° C. and 16,000 g. The supernatant is then transferred to a fresh centrifuge tube and a 1/5 volume of PEG-NaCl (PEG 8000 (200 g/L), NaCl (146 g/L), autoclaved) is added. The mixture is then incubated for 5 minutes at room temperature. The mixture is then centrifuged as above and the supernatant decanted. The supernatant is then respun briefly and the remaining supernatant removed. The phage pellet is then resuspended in 1/20 volume of PBS (or other analogous buffer). Insoluble matter is then pelleted by centrifugation. The supernatant containing the purified phage is saved and used in assays such as Ic 50 and Ec 50 assays that are described in the following examples.
# In the Tables provided herein, “Ic 50” refers to the measure of the concentration of peptide needed to inhibit 50% of Apo-2L (e.g. amino acids 114 to 281 of SEQ ID NO: 1) binding to an Apo-2L receptor molecule (e.g. DR4-IgG (SEQ ID NO: 108) or DR5 ECD (SEQ ID NO: 105) etc.). The peptides are classified such that class 1-class 4 represent a, b, c, and d respectively.
# [1] = Positive clones, phage competition, competitor DR5 ECD (Comp/DR5 EcD), read-out: IC50
SMILES,IC50 [1] [nM],"IC50 (Table IV cross-reactivity, phage clones, read-out: Hu DR5 ECD (SEQ ID NO: 105) Ic50) [nM]"
CC(C)C[C@H](NC(=O)[C@H](CCCCN)NC(=O)[C@H](CO)NC(=O)[C@@H]1CSSC[C@H](NC(=O)[C@@H](NC(=O)[C@H](CCC(=O)O)NC(=O)CN)C(C)C)C(=O)N[C@@H](CC(C)C)C(=O)N[C@@H]([C@@H](C)O)C(=O)N[C@@H](CCC(=O)O)C(=O)N1)C(=O)N[C@H](C(=O)O)[C@@H](C)O [LB963] (H-GEVCLTECSKLT-OH; disulfide 4-8 (inferred); N-terminus and C-terminus assumed),11.8,11.8
CSCC[C@H](NC(=O)[C@H](CC(C)C)NC(=O)[C@H](CCCCN)NC(=O)[C@H](CCC(=O)O)NC(=O)[C@@H]1CSSC[C@H](NC(=O)[C@@H](NC(=O)[C@@H](N)CCC(=O)O)C(C)C)C(=O)N[C@@H](CCSC)C(=O)N[C@@H]([C@@H](C)O)C(=O)N[C@@H](CO)C(=O)N1)C(=O)N[C@@H](CO)C(=O)N[C@@H](C)C(=O)N[C@@H](CC(C)C)C(=O)N[C@@H](CO)C(=O)N[C@@H](CC(C)C)C(=O)O [Peptide 2H9-13] (H-EVCMTSCEKLMSALSL-OH; disulfide 3-7 (inferred); N-terminus and C-terminus assumed),79.1,
CC[C@H](C)[C@@H]1NC(=O)[C@H](C(C)C)NC(=O)[C@H](CCC(N)=O)NC(=O)[C@@H](NC(=O)[C@@H](NC(=O)[C@H](CC(=O)O)NC(=O)[C@H](CCC(=O)O)NC(=O)[C@H](C)NC(=O)[C@@H]2CCCN2C(=O)[C@H](CCCCN)NC(=O)[C@@H](N)Cc2ccc(O)cc2)[C@@H](C)O)CSSC[C@@H](C(=O)N[C@@H](CCCNC(=N)N)C(=O)N[C@@H](CCC(N)=O)C(=O)N[C@@H](CCCCN)C(=O)N[C@H](C(=O)N[C@H](C(=O)N[C@@H](CCC(N)=O)C(=O)O)C(C)C)[C@@H](C)O)NC(=O)[C@H]([C@@H](C)O)NC(=O)[C@H](CCSC)NC1=O [Peptide 2Hd840-7] (H-YKPAEDTCQVIMTCRQKTVQ-OH; disulfide 8-14 (inferred); N-terminus and C-terminus assumed),7.8,
CC[C@H](C)[C@H](NC(=O)[C@@H](NC(=O)[C@H](CCCCN)NC(=O)[C@@H]1CCCN1C(=O)[C@H](CCCNC(=N)N)NC(=O)[C@@H]1CSSC[C@H](NC(=O)[C@@H](NC(=O)[C@H](CC(=O)O)NC(=O)[C@H](CCC(=O)O)NC(=O)[C@@H](NC(=O)[C@H](CCC(N)=O)NC(=O)[C@H](CCC(=O)O)NC(=O)[C@@H](N)Cc2c[nH]cn2)[C@@H](C)O)[C@@H](C)O)C(=O)N[C@@H](CCC(N)=O)C(=O)N[C@@H](C(C)C)C(=O)N[C@@H](Cc2ccccc2)C(=O)N[C@@H](CCSC)C(=O)N[C@@H](CO)C(=O)N1)[C@@H](C)O)C(=O)N[C@H](C(=O)O)C(C)C [Peptide 2Hd840-8] (H-HEQTEDTCQVFMSCRPKTIV-OH; disulfide 8-14 (inferred); N-terminus and C-terminus assumed),8.8,
CC[C@H](C)[C@H](NC(=O)[C@H](CO)NC(=O)[C@H](CC(N)=O)NC(=O)[C@@H](N)C(C)C)C(=O)N[C@@H](CCSC)C(=O)N[C@H]1CSSC[C@@H](C(=O)N[C@@H](CO)C(=O)N[C@H](C(=O)N[C@@H](Cc2ccccc2)C(=O)N[C@H](C(=O)O)[C@@H](C)O)[C@@H](C)O)NC(=O)[C@H]([C@@H](C)O)NC(=O)[C@H](CCC(=O)O)NC(=O)[C@H](C)NC(=O)[C@H]([C@@H](C)O)NC(=O)[C@H](C(C)C)NC(=O)[C@H]([C@@H](C)CC)NC(=O)[C@@H]2CCCN2C(=O)CNC(=O)[C@H](CC(=O)O)NC1=O [Peptide 2Hd841-1] (H-VNSIMCDGPIVTAETCSTFT-OH; disulfide 6-16 (inferred); N-terminus and C-terminus assumed),175,
CSCC[C@H](NC(=O)[C@H](CC(C)C)NC(=O)[C@H](CCCCN)NC(=O)[C@H](CCC(=O)O)NC(=O)[C@@H]1CSSC[C@H](NC(=O)[C@@H](NC(=O)[C@H](CCC(=O)O)NC(=O)CNC(=O)[C@H](CCC(N)=O)NC(=O)[C@H](CCC(=O)O)NC(=O)[C@@H](N)Cc2ccccc2)C(C)C)C(=O)N[C@@H](CCSC)C(=O)N[C@@H]([C@@H](C)O)C(=O)N[C@@H](CC(C)C)C(=O)N1)C(=O)O [Peptide 3H858-1] (H-FEQGEVCMTLCEKLM-OH; disulfide 7-11 (inferred); N-terminus and C-terminus assumed),83.3,
CSCC[C@H](NC(=O)[C@H](CC(C)C)NC(=O)[C@H](CCCCN)NC(=O)[C@H](CC(=O)O)NC(=O)[C@@H]1CSSC[C@H](NC(=O)[C@@H](NC(=O)[C@H](CCC(=O)O)NC(=O)CNC(=O)[C@@H](NC(=O)CNC(=O)[C@@H](N)C(C)C)C(C)C)C(C)C)C(=O)N[C@@H](CCSC)C(=O)N[C@@H]([C@@H](C)O)C(=O)N[C@@H](CCSC)C(=O)N1)C(=O)O [Peptide 3H858-3] (H-VGVGEVCMTMCDKLM-OH; disulfide 7-11 (inferred); N-terminus and C-terminus assumed),67.2,
CC(C)C[C@@H]1NC(=O)[C@@H](NC(=O)[C@@H](NC(=O)[C@H](CCC(=O)O)NC(=O)CNC(=O)[C@H](CCC(=O)O)NC(=O)[C@H](Cc2c[nH]cn2)NC(=O)[C@@H](N)CCCNC(=N)N)C(C)C)CSSC[C@@H](C(=O)N[C@@H](CO)C(=O)N[C@@H](CCCNC(=N)N)C(=O)N[C@H](C(=O)N[C@@H](CCCCN)C(=O)N[C@@H](CCCNC(=N)N)C(=O)N[C@H](C(=O)O)[C@@H](C)O)C(C)C)NC(=O)[C@H](CO)NC(=O)[C@H]([C@@H](C)O)NC1=O [Peptide 870-1-S5] (H-RHEGEVCLTSCSRVKRT-OH; disulfide 7-11 (inferred); N-terminus and C-terminus assumed),7.5,
CC[C@H](C)[C@H](NC(=O)[C@H](CCCCN)NC(=O)[C@H](C)NC(=O)[C@@H]1CSSC[C@H](NC(=O)[C@@H](NC(=O)[C@H](CCC(=O)O)NC(=O)CNC(=O)[C@H](CO)NC(=O)[C@H](CC(N)=O)NC(=O)[C@@H](N)CCC(=O)O)C(C)C)C(=O)N[C@@H](CCSC)C(=O)N[C@@H]([C@@H](C)O)C(=O)N[C@@H](CO)C(=O)N1)C(=O)N[C@@H](CCCNC(=N)N)C(=O)N[C@@H](CO)C(=O)N[C@@H](CCCNC(=N)N)C(=O)O [Peptide 870-19-S5] (H-ENSGEVCMTSCAKIRSR-OH; disulfide 7-11 (inferred); N-terminus and C-terminus assumed),7.5,
CC(C)C[C@H](NC(=O)[C@H](CC(C)C)NC(=O)[C@H](CCCNC(=N)N)NC(=O)[C@H](CCC(=O)O)NC(=O)[C@@H]1CSSC[C@H](NC(=O)[C@@H](NC(=O)[C@H](CCC(=O)O)NC(=O)CNC(=O)[C@@H]2CCCN2C(=O)[C@H](CC(C)C)NC(=O)[C@@H](N)CCCNC(=N)N)C(C)C)C(=O)N[C@@H](CC(C)C)C(=O)N[C@@H]([C@@H](C)O)C(=O)N[C@@H](CO)C(=O)N1)C(=O)O [Peptide 871-4-S3] (H-RLPGEVCLTSCERLL-OH; disulfide 7-11 (inferred); N-terminus and C-terminus assumed),149,
CC(C)C[C@H](NC(=O)[C@H](CCCNC(=N)N)NC(=O)[C@H](CCC(=O)O)NC(=O)[C@@H]1CSSC[C@H](NC(=O)[C@@H](NC(=O)[C@H](CCC(=O)O)NC(=O)CNC(=O)[C@@H]2CCCN2C(=O)[C@@H](NC(=O)[C@@H](N)C(C)C)C(C)C)C(C)C)C(=O)N[C@@H](CC(C)C)C(=O)N[C@@H]([C@@H](C)O)C(=O)N[C@@H](CO)C(=O)N1)C(=O)N[C@H](C(=O)O)[C@@H](C)O [Peptide 871-39-S3] (H-VVPGEVCLTSCERLT-OH; disulfide 7-11 (inferred); N-terminus and C-terminus assumed),44.8,
